Laboratory results reported in the antibiotic and cytotoxicity screens of Wong et al. (2023).
Some of the results follow.

These compounds were tested on S. aureus RN4220 (assay: growth inhibition call (relative growth <= 0.2)). Settings: 50 µM.

Growth inhibition call, inactive:
C[C@H](CO)N1C[C@H](C)[C@@H](CN(C)S(=O)(=O)c2ccc(Cl)cc2)Oc2c(NC(=O)C3CC3)cccc2C1=O, COc1ccc(NC(=O)N(C)C[C@@H]2OCCCC[C@@H](C)Oc3ccc(NC(=O)c4ccncc4)cc3C(=O)N([C@H](C)CO)C[C@H]2C)cc1, CC(C)[Si]1(C(C)C)OCc2cc(-c3ccc(-c4ccc(Cl)c(Cl)c4)o3)nc(CCc3ccccc3)c21, COc1ccc(NC(=O)N(C)C[C@H]2OCCCC[C@H](C)Oc3ccc(NC(=O)c4ccncc4)cc3C(=O)N([C@@H](C)CO)C[C@@H]2C)cc1, Cc1noc(C)c1S(=O)(=O)Nc1ccc2c(c1)CC(=O)N([C@@H](C)CO)C[C@@H](C)[C@@H](CN(C)S(=O)(=O)c1ccc(F)cc1)O2, C[C@H]1CCCCO[C@H](CN(C)Cc2ccc3c(c2)OCO3)[C@@H](C)CN([C@@H](C)CO)C(=O)c2cc(NC(=O)Nc3ccc(C(F)(F)F)cc3)ccc2O1, C[C@@H]1CCCCO[C@@H](CN(C)C(=O)C2CCCCC2)[C@@H](C)CN([C@@H](C)CO)C(=O)c2cc(NC(=O)Nc3cccc4ccccc34)ccc2O1, C[C@H](CO)N1C[C@H](C)[C@H](CN(C)Cc2ccc3c(c2)OCO3)Oc2ccc(NS(C)(=O)=O)cc2CC1=O, C[C@@H]1CCCCO[C@@H](CN(C)C(=O)Nc2ccccc2)[C@H](C)CN([C@@H](C)CO)C(=O)c2cc(NC(=O)Nc3cccc4ccccc34)ccc2O1
